Values marked as one replicate rest on one cluster of the flow cell; about a third of the high ones do not repeat.
These sequences were tested on ATP (assay: switch fluorescence ratio, 500 uM ATP over buffer (Cy3 cluster intensity, sum of 5 cycles each) (fold (ratio)); higher = stronger signal-on switching upon ATP binding; sequences stand for … in TCGTCGGCAGCGTCAGATGTGTATAAGAGACAGTTTTTTTTTTTTTTTTTTTTTTTTT…TC). Conditions: aptamer strand: ATP DNA aptamer (quencher-CACCTGGGGGAGTATTGCGGAGGAAGG + anchor), 100 nM annealed; ATP concentration: 500 uM; one replicate.
In short: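 For every switch-domain sequence, the fluorescence ratio is the mean of per-cluster values, each being summed target-cycle Cy3 intensity over summed buffer-cycle Cy3 intensity. Clusters outside 100-1000 RFU were excluded. On a modified Illumina MiSeq flow-cell, the Cy3-labelled switching-strand clusters were annealed to 100 nM quencher-labelled ATP aptamer, imaged in selection buffer and then after 15 min with 500 uM ATP at 22 °C. Five such cycles were run, with NaOH stripping and re-annealing between them.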
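Further: ATP exposure 15 min at 22 °C before imaging.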

Sequence	switch fluorescence ratio
TGCAACGCTT	0.991
TGCAACTCTG	0.955
TGCAAGGTGA	1.05
TGCAAGTGCC	1.05
TGCAATCTTA	1.08
TGCACAGTG	1.06
TGCACCTGCA	1
TGCACGGGCC	1.05
TGCACGGGGC	1.08
TGCAGACACG	1.08
TGCAGAGATC	0.995
TGCAGATCT	1
TGCAGCTAAC	2.67
TGCAGGCCCC	1.05
TGCAGGGGG	1.01
TGCAGGTGGA	1.14
TGCAGTATGC	0.939
TGCAGTGGAC	1.18
TGCATAAACT	1.01
TGCATAGGAG	1
TGCATCGTAA	1.05
TGCATCTCAT	0.978
TGCATCTTA	1
TGCATCTTTG	1.01
TGCATGAATA	0.954
TGCATGAGGG	1.08

Sequence	switch fluorescence ratio
TGCATGGTAG	0.998
TGCATTACGA	3.4
TGCATTCTTA	1.01
TGCATTTTTC	1.03
TGCCAACGAG	1.02
TGCCAAGAGC	1.05
TGCCAATGTA	0.967
TGCCACCATT	0.972
TGCCACCGGT	0.954
TGCCAGTATG	0.957
TGCCAGTTAC	1.09
TGCCATGCGA	1.01
TGCCATTAAT	1.03
TGCCCACC	1.18
TGCCCAGGTA	2.22
TGCCCAGTCC	0.966
TGCCCCCTTC	1.07
TGCCCGGGTT	1
TGCCCGGTCA	1.02
TGCCGAGCCG	1.06
TGCCGCCAGC	1.11
TGCCGGTGAA	1.04
TGCCGGTTTC	0.997
TGCCGTATAC	1.24
TGCCGTCTTT	1.03
TGCCTAAAGC	0.952

Sequence	switch fluorescence ratio
TGCCTCCCGC	2.11
TGCCTCTGGT	0.986
TGCCTGAGGG	1.01
TGCCTGCTGT	1.01
TGCCTGGTCG	1.04
TGCCTGTATT	0.983
TGCCTTTGAA	1.05
TGCCTTTTAT	1.01
TGCGAAAGAC	1.1
TGCGACTTGT	0.944
TGCGAGAGTA	0.991
TGCGATCATC	1.02
TGCGATGGGC	1.02
TGCGCAAAGA	1.05
TGCGCAATCA	1.35
TGCGCCAGAA	0.944
TGCGCCGACG	0.986
TGCGCCGGGC	1.03
TGCGCGTAGC	0.969
TGCGCTCCAC	1.34
TGCGCTTTGC	1.1
TGCGGAGCGA	1.38
TGCGGAGGGG	0.971
TGCGGCACCT	1.12
TGCGGCCACC	0.953
TGCGGCGTAC	1.11

Sequence	switch fluorescence ratio
TGCGGCTAGC	1.02
TGCGGCTGAT	0.974
TGCGGGCGGT	0.976
TGCGGGGAG	0.973
TGCGGGGATT	0.964
TGCGGGGCCT	1.03
TGCGGTCGGG	0.996
TGCGGTGCGT	1.01
TGCGGTGGTA	1.02
TGCGGTTCTG	1.04
TGCGGTTGCT	0.962
TGCGGTTGG	1.01
TGCGTCTTGG	1.01
TGCGTTACGG	1.02
TGCGTTATGG	0.992
TGCGTTTTCA	0.997
TGCTAAAACC	0.978
TGCTAAGATT	1.01
TGCTACGGAA	4.33
TGCTAGGATT	0.951
TGCTAGGGCG	0.956
TGCTAGGTCG	1.01
TGCTATAGCA	0.977
TGCTCCGAGG	1.37
TGCTCCGTTT	1.24
TGCTCTCCCC	1.08

Sequence	switch fluorescence ratio
TGCTCTCTAA	1.06
TGCTGACGAT	1.08
TGCTGACGGC	0.994
TGCTGAGGAC	1.02
TGCTGAGGGA	0.974
TGCTGCTAAT	1.46
TGCTGTAAGT	1
TGCTTA	0.958
TGCTTAAA	0.961
TGCTTCAGTA	1.04
TGCTTCCACT	1.02
TGCTTCGCTG	1.16
TGCTTGAGGA	1
TGCTTGCATG	0.955
TGCTTGCCTA	1.04
TGCTTTACAA	1.01
TGCTTTCGT	1.03
TGGAAAAAGT	0.991
TGGAAATATC	1.02
TGGAAATGGG	0.974
TGGAAATTCT	0.999
TGGAAGAGCC	1.09
TGGAAGCGTG	0.965
TGGAAGGAGT	0.979
TGGAAGGCAT	1.02
TGGAAGTTGT	1.05

Sequence	switch fluorescence ratio
TGGAAGTTTA	1.02
TGGACACTAG	1.03
TGGACCAAAT	0.984
TGGACCGAC	1.56
TGGACCTTGC	1.9
TGGACGGGT	1
TGGACTAAGG	0.963
TGGAGAATTG	0.991
TGGAGACATT	0.963
TGGAGACTGA	1
TGGAGAGCAT	1
TGGAGCAGCG	1.18
TGGAGCGCAT	1.16
TGGAGGCGAT	1.31
TGGAGGTAAT	0.982
TGGAGTCCAG	1.03
TGGAGTTCAA	1.02
TGGATAACAT	1.01
TGGATACT	0.96
TGGATATCCC	1.04
TGGATATGC	1.03
TGGATGTCGG	0.976
TGGATTAGCG	0.966
TGGATTTGAC	1.06
TGGCAAAGGT	1.01
TGGCAAATG	0.996

Sequence	switch fluorescence ratio
TGGCACCTAT	1.07
TGGCACCTGT	1.02
TGGCAGATTA	0.972
TGGCAGCTGA	0.981
TGGCATCGGT	1.03
TGGCCAGCTA	1.01
TGGCCGAGCG	1.03
TGGCCTTACC	1.25
TGGCGAGGGC	1.01
TGGCGATATG	0.992
TGGCGATTTA	0.979
TGGCGCCACG	1.01
TGGCGCGTCC	1.01
TGGCGCTAAC	1.26
TGGCGGGGT	0.958
TGGCGTAATG	0.949
TGGCGTATCT	1.04
TGGCGTGTGT	1.02
TGGCTGATAC	2.29
TGGCTGCGGT	1.01
TGGCTGGAA	0.987
TGGCTGGGCC	1.02
TGGCTGTGCG	0.963
TGGCTTACCA	0.999
TGGCTTAGG	0.941
TGGGAAGTAA	0.983

Sequence	switch fluorescence ratio
TGGGACAACC	1.02
TGGGACCCCG	1.04
TGGGACGAG	1.02
TGGGACGGTG	0.961
TGGGAGGTG	1.05
TGGGAGTGTC	1.03
TGGGCAATGA	1.34
TGGGCAGTA	1.06
TGGGCCACT	0.973
TGGGCGTGAG	0.959
TGGGCTAAGG	1.01
TGGGCTCATC	0.994
TGGGCTTAAT	0.967
TGGGGACGCG	0.987
TGGGGAGTC	1.02
TGGGGATTCG	0.966
TGGGGCGCGT	1.02
TGGGGGCCA	0.991
TGGGGGTAT	0.976
